According to PubChem BioAssay AID2546 (National Center for Advancing Translational Sciences (NCATS), 2010):
Several values for one entry are separate records, joined by “and”; a condition that tells them apart may be missing. Equal values may be shown once. In all, about 310,000 compounds went through this assay and about 11,000 (3.5%) were called active. Inconclusive results, whose numbers are uncertain, are shown with a selection of clear calls. Calls come from the whole dose curve; as a rule, active = well fitted inhibition curve with a large enough effect; inconclusive = small, poorly fitted or top-dose-only effect, or effect the other way; inactive = flat fitted curve, though single readings scatter. Potencies beside an inconclusive call are fits to weak or partial responses and may not hold up.

Assay: VP16 counterscreen qHTS for inhibitors of ROR gamma transcriptional activity;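 note: Gal4-VP16 expression switched on by copper sulfate through the metallothionein promoter; nearly all actives have a fitted effect of over 50% in size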
Conditions: Drosophila S2 Gal4-VP16 UAS-luciferase, luminescence, 20 h; activity, negative = inhibition: at 53.6 µM (top of the series)
% is set by controls: 0 for no effect and ±100 for the full control effect; potency is the fitted concentration of half-maximal effect; tags give direction and shape of the fitted curve.

SMILES | Potency | activity, negative = inhibition
CC(C)N(Cc1nc(-c2ccc(Cl)cc2)no1)Cc1nccn1C | inconclusive: 22.4 µM [inhibitor, single point] | –
COc1ccccc1N/C=C/c1onc(C)c1[N+](=O)[O-] | inconclusive: 25.1 µM [inhibitor, partial curve, poor fit] | –
CCC1(c2ccccc2)NC(=S)N(c2ccc(C)cc2)N1 (stereo not drawn) | inconclusive: 31.6 µM [inhibitor, single point] | –
O=[N+]([O-])c1ccc(O)c(N=Cc2sc3ccccc3c2O)c1 | inconclusive: 35.5 µM [inhibitor, single point] | –
Cc1ccc(Nc2nnns2)cc1C | – | inactive: -21.5%
Fc1ccc(/C=N/NC(=S)NCCc2ccccc2)cc1F | active: 8.91 µM | –
Cc1ccc2oc(-c3ccco3)nc2c1 | – | inactive: -0.217%
COc1ccc(NC(=O)C2CCCN(CCCc3ccccc3)C2)cc1OCC(C)C (stereo not drawn) | – | inactive: -20.5%
COc1cccc(N2CC(C(=O)Nc3nnc(SCC(=O)NCc4ccco4)s3)CC2=O)c1 (stereo not drawn) | – | inactive: -3.5%
N#CC1=C(N)N(c2ccccc2)C(c2ccco2)C1(C#N)C#N (stereo not drawn) | – | inactive: 2.71%
COc1ccc(C(=O)N2CCC3(CCCN(Cc4ccc(C#N)cc4)C3)CC2)cc1 | – | inactive: -8.49%
Cc1cc(C)n2nc(C(=O)Nc3ccc(N4CCOCC4)cc3)nc2n1 | – | inactive: -6.61%
CC(=O)/C=C1/C(=O)Nc2ccccc21 | active: 7.08 µM | –
CC1CCN(S(=O)(=O)c2ccc3c(c2)c(=O)c(C(=O)NCc2ccccc2Cl)cn3C)CC1 | – | inactive: -2.73%
CCN(CC1COc2ccccc2O1)C(=S)Nc1ccc(F)cc1 (stereo not drawn) | inconclusive: 35.5 µM [inhibitor, single point] | –
CN(C)c1ccc(/C=C/c2nc3ccccc3c(=O)[nH]2)cc1 | inconclusive: 4.47 µM [inhibitor, partial curve, poor fit] | –
COc1cc(OC)c2c(-c3ccccc3)cc(=O)oc2c1C(CCN1CCCCC1)c1ccc(N(C)C)cc1 (stereo not drawn) | inactive and inconclusive: 31.6 µM [inhibitor, single point] | –
COc1cc(-c2[nH]ncc2CN2CCN(Cc3cccs3)CC2)cc(OC)c1OC | – | inactive: -17.7%
O=c1c2ccccc2nnn1CSc1nnc2ccccn12 | – | inactive: 0.652%
COc1ccc(CN2CCC(C(=O)Nc3ccc(Oc4ccccc4)nc3)CC2)cc1F | inconclusive: 31.6 µM [inhibitor, single point] | –
Clc1ccc2c(c1)C(N1CCNCC1)Cc1ccccc1S2 (stereo not drawn) | inconclusive: 35.5 µM [inhibitor, single point] | –
N=c1oc2ccccc2cc1C(=O)NC1CCCCCC1 | inconclusive: 35.5 µM [inhibitor, single point] | –
Cc1cc(C(=O)N/N=C/c2ccc([N+](=O)[O-])cc2)c(C)o1 | inconclusive: 35.5 µM [inhibitor, single point] | –
Cc1occc(=O)c1OC(=O)Nc1ccc(Cl)c(Cl)c1 | inconclusive: 35.5 µM [inhibitor, single point] | –

SMILES | Potency | activity, negative = inhibition
CCOC(=O)N1CCN(C(=S)NC(=O)c2ccc(F)c(F)c2)CC1 | active: 1 µM | –
CCn1c(SCC(=O)c2ccc(Cl)cc2)nnc1-c1ccoc1C | inconclusive: 35.5 µM [inhibitor, single point] | –
O=C(N/N=C\c1cn(-c2ccccc2)nc1-c1ccccc1)c1ccc2c(c1)OCO2 | inconclusive: 7.08 µM [inhibitor, partial curve] | –
COc1cc2nc(CN3CCN(C(c4ccccc4)c4ccccc4)CC3)[nH]c(=O)c2cc1OC | – | inactive: 0.821%
CCOC(=O)Cn1c(=NC(=O)c2sc3ccccc3c2Cl)sc2cc(S(N)(=O)=O)ccc21 | inconclusive: 22.4 µM [inhibitor, single point] | –
COc1ccc(CN(C2CCCC2)S(=O)(=O)c2ccc(-n3cnnn3)cc2)cc1OC | – | inactive: -17%
CC(=O)N1CCSc2ccc(S(=O)(=O)NCCc3ccc(C)cc3)cc21 | inconclusive: 35.5 µM [inhibitor, single point] | –
CCNc1ncc2nc(-c3cccs3)c(=O)n(C)c2n1 | inconclusive: 14.1 µM [activator, single point] | –
CCOC(=O)c1c(NC(=O)c2cccs2)sc2c1CC(C)(C)OC2 | – | inactive: -15.9%
COc1ccc(C(N)CCc2ccc(C)o2)cc1 (stereo not drawn) | – | inactive: -4.58%
Cn1cccc1/C=C1\SC(=S)N(Nc2ccccc2)C1=O | inconclusive: 7.08 µM [inhibitor, partial curve] | –
O=S(=O)(Cc1noc(-c2ccc(Cl)cc2)n1)Cc1ccco1 | inconclusive: 35.5 µM [inhibitor, single point] | –
Cc1ccc(C(=O)OC/C(O)=C(\C#N)c2nc3ccccc3[nH]2)cc1S(=O)(=O)N1CCOCC1 | inconclusive: 1.41 µM [inhibitor, full curve, poor fit] | –
COc1cc(OC)cc(C(=O)Nc2ccc(-c3nc4ccccc4o3)c(O)c2)c1 | inconclusive: 35.5 µM [inhibitor, single point] | –
CCOC(=O)C(=O)C1=C(N2CCOCC2)/C(=C\c2ccc(F)cc2)CC1 | – | inactive: -26.9%
CCN(Cc1ccncc1)C(=O)c1cc(COc2ccc(C)c(C)c2)on1 | inconclusive: 28.2 µM [inhibitor, single point] | –
COc1ccc(NC(=O)c2c(NC(=O)CNCc3ccco3)sc3c2CCC3)cc1 | inconclusive: 35.5 µM [inhibitor, single point] | –
CCOC(=O)c1cnc2cc(C)nn2c1C | – | inactive: 21%
Cc1ccc(NC2CCCN(C(=O)CCN3CCOCC3)C2)cc1C (stereo not drawn) | inconclusive: 35.5 µM [inhibitor, single point] | –
Cc1ccccc1OCCn1c(=O)oc2ccccc21 | – | inactive: 14.5%
COC(=O)CN1C(=O)C(C)(C)Oc2ccc(C(=O)Nc3cccc(OC)c3)cc21 | – | inactive: 3.12%
Cc1ccc(O)c(/C=N/NC(=O)C2=NNC(c3ccccc3)(c3ccccc3)C2)c1 | active: 2.82 µM | –
O=C(O)c1cccc(S(=O)(=O)Nc2cccc3ccccc23)c1 | inconclusive: 8.91 µM [inhibitor, partial curve] | –
Cc1ccc(N=Cc2cccc(O)c2O)c(C)c1 | inconclusive: 25.1 µM [inhibitor, single point] | –
